Assay results: the supplement of paper PMC10369915
The list shows a part of the results. Rule as the data show it: active = 3.2 or more and inactive = the rest. Most of these values are background signal.

B1: MYPC1_HUMAN_823 (peptide)
chain: AGASEPKYYSQPILV
B2: MYPT1_HUMAN_446 (peptide)
chain: GLRKTGSYGALAEIT
B3: NCK2_HUMAN_110 (peptide)
chain: GSGADRIYDLNIPAF
B4: NEGR1_HUMAN_187 (peptide)
chain: KPFENGQYLDIYGIT
B5: NFATC1_HUMAN_371 (peptide)
chain: ADFAPEDYSSFQHIR
B6: NFL_HUMAN_43 (peptide)
chain: ARSAYSSYSAPVSSS
B7: NMDE2_HUMAN_1133 (peptide)
chain: KEGLRDFYLDQFRTK
B8: NMDE2_HUMAN_1474 (peptide)
chain: GSSNGHVYEKLSSIE
B9: NMT1_HUMAN_180_YA (peptide)
chain: ATLLNENYVEDDDNM
B10: NOL8_HUMAN_376 (peptide)
chain: IMRNDREYDSGDTDE
B11: NOS2_HUMAN_151_YA (peptide)
chain: IEFVNQAYGSFKEAK
B12: NOS3_HUMAN_657 (peptide)
chain: FGLGSRAYPHFCAFA
B13: NPHN_HUMAN_1193 (peptide)
chain: SGAWGPLYDEVQMGP
B14: NRCAM_HUMAN_1225 (peptide)
chain: DDGTFGEYSDAEDHK
B15: NSF1C_HUMAN_167 (peptide)
chain: APEEESAYVAGEKRQ
B16: NTRK1_HUMAN_676 (peptide)
chain: FGMSRDIYSTDYYRV
B17: NTRK2_HUMAN_707_YA (peptide)
chain: DVASTDAYRVGGHTM
B18: NUDC2_HUMAN_145 (peptide)
chain: GAEISGNYTKGGPDF

molecular target: SHP2 C-SH2 domain E139D; test: enrichment score (SH2-bound / input frequency) (ratio); bacterial display of known human phosphotyrosine sites (pTyr-Var adds point mutants) read by sequencing; higher = stronger binding; tyrosines were phosphorylated by kinases first; conditions: peptide library: Human pTyr
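Also: displayed peptides selected on beads carrying the immobilized SH2 domain, with library peptides lacking any tyrosine serving as negative controls.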

Enrichment score, inactive:
B1 0.817
B2 0.975
B3 0.571
B4 0.974
B5 0.769
B6 0.839
B7 0.996
B8 0.746
B9 1.35
B10 1.51
B11 0.585
B12 1.46
B13 0.793
B14 0.913
B15 0.632
B16 0.844
B17 0.597
B18 0.583

molecular target: SHP2 C-SH2 domain wild-type; test: as above; conditions: peptide library: Human pTyr

Enrichment score, inactive:
B1 0.663
B2 0.765
B3 0.468
B4 0.745
B5 0.632
B6 1.08
B7 0.758
B8 0.798
B9 1.06
B10 1.13
B11 0.638
B12 1.07
B13 0.623
B14 0.767
B15 0.836
B16 0.892
B17 0.511
B18 0.58

molecular target: SHP2 N-SH2 domain L43F; test: as above; conditions: peptide library: Human pTyr

Enrichment score, inactive:
B1 0.744
B2 0.788
B3 0.643
B4 0.784
B5 0.676
B6 0.559
B7 0.71
B8 0.553
B9 1.11
B10 1.24
B11 0.839
B12 1.29
B13 0.532
B14 1.01
B15 0.931
B16 0.642
B17 0.614
B18 0.554

molecular target: SHP2 N-SH2 domain T42A; test: as above; conditions: peptide library: Human pTyr

Enrichment score, inactive:
B1 0.875
B2 0.788
B3 0.508
B4 0.764
B5 0.6
B6 0.532
B7 0.904
B8 0.569
B9 1.11
B10 1.05
B11 0.786
B12 1.15
B13 0.61
B14 0.864
B15 0.832
B16 0.776
B17 0.47
B18 0.566

molecular target: SHP2 N-SH2 domain T52S; test: as above; conditions: peptide library: Human pTyr

Enrichment score, inactive:
B1 0.58
B2 0.892
B3 0.618
B4 0.896
B5 0.519
B6 0.518
B7 1.1
B8 0.686
B9 1.32
B10 1.2
B11 0.733
B12 1.6
B13 0.48
B14 0.9
B15 0.528
B16 0.655
B17 0.572
B18 0.49

molecular target: SHP2 N-SH2 domain wild-type; test: as above; conditions: peptide library: Human pTyr

Enrichment score, inactive:
B1 0.762
B2 0.844
B3 0.627
B4 1.03
B5 0.84
B6 0.552
B7 0.942
B8 0.857
B9 1.08
B10 1.4
B11 0.924
B12 1.78
B13 0.564
B14 0.958
B15 1.31
B16 0.744
B17 0.535
B18 0.723
